Measurements taken from patent US20170173112A1 (Daiichi Sankyo, published 2017).
Each block holds one binder with its values, some of them ahead of it.

Assays:
mouse PCSK9 = biological target: T1, mouse PCSK9 (mouse, UniProt Q80W65 35-694, limits assumed); experiment: binding ELISA, biotinylated PCSK9 on Neutravidin plate
T1 construct: biotinylated in the assays; also called mPCSK9

[1] = biological target: T2, gain of function hPCSK9_D374Y mutant (human, UniProt Q8NBP7 31-152; Q8NBP7 153-692); experiment: competition ELISA on LDL-R-coated plate
T2 construct: also called human PCSK9_D374Y; not shown: FLAG tag

[2] = biological target: T3, human PCSK9 (SEQ ID NO: 34) containing a C-terminal FLAG tag (human, UniProt Q8NBP7 31-152; Q8NBP7 153-692); experiment: competition ELISA on LDL-R-coated plate
T3 construct: Secreted from HEK293F cells; also called hPCSK9; hPCSK9 wt; not shown: C-terminal FLAG tag

[3] = biological target: T3, human PCSK9 (SEQ ID NO: 34) containing …; experiment: SPR (Biacore T200), biotinylated PCSK9 captured, 1:1 Langmuir model
[4] = biological target: T3, human PCSK9 (SEQ ID NO: 34) containing …; experiment: cell free TR-FRET, 20 nM biotin-hPCSK9 and Eu-LDLR, without HSA
human serum albumin = biological target: T4, human serum albumin (human, UniProt P02768 25-609); experiment: SPR (Biacore_Anti HSA); set-up not described
T4 construct: also called HSA

[5] = biological target: T3, human PCSK9 (SEQ ID NO: 34) containing …; experiment: cell free TR-FRET, 20 nM biotin-hPCSK9 and Eu-LDLR, with 34 mg/ml HSA
[6] = biological target: T3, human PCSK9 (SEQ ID NO: 34) containing …; experiment: SPR (Biacore T200), biotinylated human PCSK9 captured, 1:1 model

Sequence of mouse PCSK9 (Q80W65 35-694 limits assumed): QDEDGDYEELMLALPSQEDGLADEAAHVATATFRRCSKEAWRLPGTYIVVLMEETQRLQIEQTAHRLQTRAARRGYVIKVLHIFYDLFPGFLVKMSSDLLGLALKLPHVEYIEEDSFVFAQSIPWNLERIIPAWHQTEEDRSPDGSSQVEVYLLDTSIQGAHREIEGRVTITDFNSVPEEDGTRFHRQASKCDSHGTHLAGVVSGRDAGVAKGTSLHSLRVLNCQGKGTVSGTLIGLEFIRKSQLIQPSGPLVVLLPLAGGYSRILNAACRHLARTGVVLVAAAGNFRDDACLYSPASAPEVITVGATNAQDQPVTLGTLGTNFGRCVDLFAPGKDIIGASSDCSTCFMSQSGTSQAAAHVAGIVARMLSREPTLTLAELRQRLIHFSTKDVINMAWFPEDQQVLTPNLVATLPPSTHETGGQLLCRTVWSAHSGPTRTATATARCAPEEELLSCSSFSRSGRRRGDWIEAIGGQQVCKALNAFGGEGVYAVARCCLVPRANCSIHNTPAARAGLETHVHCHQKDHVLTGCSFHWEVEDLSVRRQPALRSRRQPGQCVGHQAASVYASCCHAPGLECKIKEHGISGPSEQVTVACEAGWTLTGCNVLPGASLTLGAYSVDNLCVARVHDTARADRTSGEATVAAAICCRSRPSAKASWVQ

binding result (mouse PCSK9): no binding (tested: 100 nM)
B1: negative control SEQ ID NO: 2 (designed binder)
chain: ASDEEIQDVSGTWYLKAMTVDREFPEMNLESVTPMTLTTLEGGNLEAKVTMLISGRSQEVKAVLEKTDEPGKYTADGGKHVAYIIRSHVKDHYIFYSEGELHGKPVPGVWLVGRDPKNNLEALEDFEKAAGARGLSTESILIPRQSETSSPGSAWSHPQFEK
binding result [1]: no binding (tested: starting concentration of 300 nM) | binding result [2]: no binding (tested: starting concentration of 300 nM)

Kd [3]: 0.39 nM | koff [3]: 0.0003 s⁻¹ | kon [3]: 750000 M⁻¹ s⁻¹ | IC50 [4]: 1.09 nM | Kd (human serum albumin): 0.013 nM | koff (human serum albumin): 3e-05 s⁻¹ | kon (human serum albumin): 2.4e+06 M⁻¹ s⁻¹ | IC50 [5]: 1.09 nM
B2: lipocalin mutein SEQ ID NO: 84 (conjugated to an albumin binding protein) (designed binder)
chain: GASDEEIQDVSGTWYLKAMTVDRFKIASWPRSVTPMTLTTLEGGNLEAKVTMNWWGRSQEVKAVLERTDEPGKYTAQGDRHVAYIIRSHVKDHYIFYSEGNLQGETVPGVWLVGRDPKNNLEALEDFEKAAGARGLSTESILIPRQSETSSPGKLGGGGSLAEAKEAANAELDSYGVSDFYKRLIDKAKTVEGVEALKDAILAALPGKLN

Kd [3]: 0.38 nM | koff [3]: 0.00027 s⁻¹ | kon [3]: 710000 M⁻¹ s⁻¹ | IC50 [4]: 1.93 nM | Kd (human serum albumin): 0.019 nM | koff (human serum albumin): 4.2e-05 s⁻¹ | kon (human serum albumin): 2.2e+06 M⁻¹ s⁻¹ | IC50 [5]: 1.26 nM
B3: lipocalin mutein SEQ ID NO: 83 (conjugated to an albumin binding protein) (designed binder)
chain: ASDEEIQDVSGTWYLKAMTVDRFKIASWPRSVTPMTLTTLEGGNLEAKVTMNWWGRSQEVKAVLERTDEPGKYTAQGDRHVAYIIRSPVKDHYIFYSEGNLQGETVPGVWLVGRDPKNNLEALEDFEKAAGARGLSTESILIPRQSETSSPGGGGSLAEAKEAANAELDSYGVSDFYKRLIDKAKTVEGVEALKDAILAALPG

Kd [3]: 0.26 nM | koff [3]: 0.00029 s⁻¹ | kon [3]: 1.1e+06 M⁻¹ s⁻¹ | IC50 [4]: 1.36 nM | Kd [6]: 0.33 nM | koff [6]: 0.000165 s⁻¹ | kon [6]: 498000 M⁻¹ s⁻¹ | IC50 [5]: 0.93 nM
B4: lipocalin mutein SEQ ID NO: 62 (designed binder)
chain: ASDEEIQDVSGTWYLKAMTVDRFKIASWPRSVTPMTLTTLEGGNLEAKVTMNWWGRSQEVKAVLERTDEPGKYTAQGDRHVAYIIRSPVKDHYIFYSEGNLQGETVPGVWLVGRDPKNNLEALEDFEKAAGARGLSTESILIPRQSETSSPGSAWSHPQFEK
